Results taken from article PMC10333884, “Large‐scale phosphomimetic screening identifies phospho‐modulated motif‐based protein interactions” (Molecular Systems Biology, 2023).
Some entries of the source have several records that differ or are many. This is not the full list of results. An entry can have further records. The records of an entry read as repeated measurements on other runs, samples or individuals; one of them may be the mean.

Experiments:
[1] = biological target: Clathrin N-terminal domain (NTD) (human) (UniProt Q00610); assay: ITC; iTC200; peptide titrated against the protein domain in approximately 10-fold excess, 16 injections; 50 mM sodium phosphate buffer pH 7.4, 1 mM DTT; constants of single runs and their average
Sequence of UniProt Q00610 (Q00610 1-364): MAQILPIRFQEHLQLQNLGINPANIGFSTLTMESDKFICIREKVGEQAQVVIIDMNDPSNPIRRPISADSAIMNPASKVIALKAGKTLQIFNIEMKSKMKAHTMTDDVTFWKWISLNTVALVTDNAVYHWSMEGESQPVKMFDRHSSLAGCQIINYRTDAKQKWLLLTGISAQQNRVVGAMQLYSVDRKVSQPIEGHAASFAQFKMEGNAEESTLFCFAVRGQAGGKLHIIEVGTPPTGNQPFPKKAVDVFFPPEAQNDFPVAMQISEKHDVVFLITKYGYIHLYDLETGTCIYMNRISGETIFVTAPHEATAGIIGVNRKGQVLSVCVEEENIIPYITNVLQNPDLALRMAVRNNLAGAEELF

MAP1LC3A ATG8 (human) = assay: as above

Substance	stoichiometry N [1]	stoichiometry N (MAP1LC3A ATG8 (human))
HURP 832-846 peptide, phosphorylated at S839 (from UniProt Q15398 832-846)	0.882, 0.863, 0.719, 0.71 [lines of one column]	
TBK1 164-179 peptide, wild-type (from UniProt Q9UHD2 164-179)		0.78, 0.69, 0.918, 0.945 [lines of one column]
